Assay results: patent publication US20200308274A1

Key:
[1] = biological target: liraglutide fibrils (human) (UniProt P01275); test: ELISA Assay (III-B); row labelled 1 uM; two-step purified antibody; raw signal, mean of 3
[2] = biological target: soluble liraglutide (human) (UniProt P01275); test: as above
[3] = biological target: liraglutide fibrils (human) (UniProt P01275); test: ELISA Assay (III-B); row labelled 3 uM; two-step purified antibody; raw signal, mean of 3
[4] = biological target: soluble liraglutide (human) (UniProt P01275); test: as above
[5] = biological target: liraglutide fibrils (human) (UniProt P01275); test: ELISA Assay (III-B); row labelled 1 uM; two-step purified antibody; A450 ratio, mean of 3
[6] = biological target: liraglutide fibrils (human) (UniProt P01275); test: ELISA Assay (III-B); row labelled 3 uM; two-step purified antibody; A450 ratio, mean of 3
[7] = biological target: liraglutide fibrils (human) (UniProt P01275); test: ELISA Assay (III-B); row labelled 10 uM; two-step purified antibody; raw signal, mean of 3
[8] = biological target: soluble liraglutide (human) (UniProt P01275); test: as above
[9] = biological target: liraglutide fibrils (human) (UniProt P01275); test: ELISA Assay (III-B); row labelled 30 uM; two-step purified antibody; raw signal, mean of 3
[10] = biological target: soluble liraglutide (human) (UniProt P01275); test: as above
[11] = biological target: liraglutide fibrils (human) (UniProt P01275); test: ELISA Assay (III-B); row labelled 10 uM; two-step purified antibody; A450 ratio, mean of 3
[12] = biological target: liraglutide fibrils (human) (UniProt P01275); test: ELISA Assay (III-B); row labelled 30 uM; two-step purified antibody; A450 ratio, mean of 3
[13] = biological target: liraglutide fibrils (human) (UniProt P01275); test: ELISA Assay (III-B); row labelled 100 uM; two-step purified antibody; raw signal, mean of 3
[14] = biological target: soluble liraglutide (human) (UniProt P01275); test: as above
[15] = biological target: liraglutide fibrils (human) (UniProt P01275); test: ELISA Assay (III-B); row labelled 300 uM; two-step purified antibody; raw signal, mean of 3
[16] = biological target: soluble liraglutide (human) (UniProt P01275); test: as above
[17] = biological target: liraglutide fibrils (human) (UniProt P01275); test: ELISA Assay (III-B); row labelled 0.1 uM; two-step purified antibody; A450 ratio, mean of 3
[18] = biological target: liraglutide fibrils (human) (UniProt P01275); test: ELISA Assay (III-B); row labelled 0.3 uM; two-step purified antibody; A450 ratio, mean of 3
[19] = biological target: liraglutide fibrils (human) (UniProt P01275); test: ELISA Assay (III-B); row labelled 100 uM; two-step purified antibody; A450 ratio, mean of 3
[20] = biological target: liraglutide fibrils (human) (UniProt P01275); test: ELISA Assay (III-B); row labelled 300 uM; two-step purified antibody; A450 ratio, mean of 3
[21] = biological target: liraglutide fibrils (human) (UniProt P01275); test: ELISA Assay (III-B); row labelled 0.01 uM; two-step purified antibody; raw signal, mean of 3
[22] = biological target: soluble liraglutide (human) (UniProt P01275); test: as above
[23] = biological target: liraglutide fibrils (human) (UniProt P01275); test: ELISA Assay (III-B); row labelled 0.03 uM; two-step purified antibody; raw signal, mean of 3
[24] = biological target: soluble liraglutide (human) (UniProt P01275); test: as above
[25] = biological target: liraglutide fibrils (human) (UniProt P01275); test: ELISA Assay (III-B); row labelled 0.10 uM; two-step purified antibody; raw signal, mean of 3
[26] = biological target: soluble liraglutide (human) (UniProt P01275); test: as above
[27] = biological target: liraglutide fibrils (human) (UniProt P01275); test: ELISA Assay (III-B); row labelled 0.30 uM; two-step purified antibody; raw signal, mean of 3
[28] = biological target: soluble liraglutide (human) (UniProt P01275); test: as above
[29] = biological target: liraglutide fibrils (human) (UniProt P01275); test: ELISA Assay (III-B); row labelled 0.01 uM; two-step purified antibody; A450 ratio, mean of 3
[30] = biological target: liraglutide fibrils (human) (UniProt P01275); test: ELISA Assay (III-B); row labelled 0.03 uM; two-step purified antibody; A450 ratio, mean of 3
[31] = biological target: liraglutide fibrils (human) (UniProt P01275); test: ELISA Assay (IV); 0.1 uM fibrils in 1600 uM soluble liraglutide; 5 nM antibody; A450 ratio to soluble-only wells

B1: Antibody E (Fc fusion)
scFv: DIQMTQSPSSLSASVGDRVTITCRASQNVSDAVNWYQQKPGKAPKLLIYSASFLYSGVPSRFSGSRSGTDFTLTISSLQPEDFATYYCQQHYTNPPTFGQGTKVEIKRTSPNSASHSGSAPQTSSAPGSQEVQLVESGGGLVQPGGSLRLSCAASGFNIKDTYIHWVRQAPGKGLEWVARITPTDGTTRYAVSVKGRFTISADTSKNTAYLQMNSLRAEDTAVYYCAREWYEASYYDWFDYFDFSDYWGQGTLVTVSSAAA[human IgG1 Fc not written out]GSHHHHHHKLDYKDHDGDYKDHDIDYKDDDDK
antibody binding signal (absorbance at 450 nm) [1]: 0.1
antibody binding signal (absorbance at 450 nm) [2]: 0.05
antibody binding signal (absorbance at 450 nm) [3]: 0.16
antibody binding signal (absorbance at 450 nm) [4]: 0.05
Liraglutide fibril specificity (Liraglutide fibril/Liraglutide monomer) [5]: 2.01
Liraglutide fibril specificity (Liraglutide fibril/Liraglutide monomer) [6]: 3.04
antibody binding signal (absorbance at 450 nm) [7]: 0.34
antibody binding signal (absorbance at 450 nm) [8]: 0.08
antibody binding signal (absorbance at 450 nm) [9]: 0.84
antibody binding signal (absorbance at 450 nm) [10]: 0.15
Liraglutide fibril specificity (Liraglutide fibril/Liraglutide monomer) [11]: 4.35
Liraglutide fibril specificity (Liraglutide fibril/Liraglutide monomer) [12]: 5.59
antibody binding signal (absorbance at 450 nm) [13]: 2.08
antibody binding signal (absorbance at 450 nm) [14]: 0.32
antibody binding signal (absorbance at 450 nm) [15]: 3.05
antibody binding signal (absorbance at 450 nm) [16]: 0.51
Liraglutide fibril specificity (Liraglutide fibril/Liraglutide monomer) [17]: 1.51
Liraglutide fibril specificity (Liraglutide fibril/Liraglutide monomer) [18]: 1.62
Liraglutide fibril specificity (Liraglutide fibril/Liraglutide monomer) [19]: 6.6
Liraglutide fibril specificity (Liraglutide fibril/Liraglutide monomer) [20]: 5.93
antibody binding signal (absorbance at 450 nm) [21]: 0.06
antibody binding signal (absorbance at 450 nm) [22]: 0.05
antibody binding signal (absorbance at 450 nm) [23]: 0.07
antibody binding signal (absorbance at 450 nm) [24]: 0.05
antibody binding signal (absorbance at 450 nm) [25]: 0.07
antibody binding signal (absorbance at 450 nm) [26]: 0.05
antibody binding signal (absorbance at 450 nm) [27]: 0.07
antibody binding signal (absorbance at 450 nm) [28]: 0.05
Liraglutide fibril specificity (Liraglutide fibril/Liraglutide monomer) [29]: 1.3
Liraglutide fibril specificity (Liraglutide fibril/Liraglutide monomer) [30]: 1.4
Antibody Specificity Ratio (Liraglutide fibril in mixture/Soluble liraglutide) [31]: 37.1

B2: Antibody N (Fc fusion)
scFv: B1 scFv with N28S, S30D, D31Y, N34S, Y92N, N94T, T182A, T184D, D185N
antibody binding signal (absorbance at 450 nm) [1]: 0.08
antibody binding signal (absorbance at 450 nm) [2]: 0.05
antibody binding signal (absorbance at 450 nm) [3]: 0.09
antibody binding signal (absorbance at 450 nm) [4]: 0.05
Liraglutide fibril specificity (Liraglutide fibril/Liraglutide monomer) [5]: 1.62
Liraglutide fibril specificity (Liraglutide fibril/Liraglutide monomer) [6]: 1.86
antibody binding signal (absorbance at 450 nm) [7]: 0.15
antibody binding signal (absorbance at 450 nm) [8]: 0.05
antibody binding signal (absorbance at 450 nm) [9]: 0.29
antibody binding signal (absorbance at 450 nm) [10]: 0.05
Liraglutide fibril specificity (Liraglutide fibril/Liraglutide monomer) [11]: 3.01
Liraglutide fibril specificity (Liraglutide fibril/Liraglutide monomer) [12]: 5.57
antibody binding signal (absorbance at 450 nm) [13]: 0.63
antibody binding signal (absorbance at 450 nm) [14]: 0.06
antibody binding signal (absorbance at 450 nm) [15]: 1.87
antibody binding signal (absorbance at 450 nm) [16]: 0.09
Liraglutide fibril specificity (Liraglutide fibril/Liraglutide monomer) [17]: 1.31
Liraglutide fibril specificity (Liraglutide fibril/Liraglutide monomer) [18]: 1.47
Liraglutide fibril specificity (Liraglutide fibril/Liraglutide monomer) [19]: 10
Liraglutide fibril specificity (Liraglutide fibril/Liraglutide monomer) [20]: 21.1
antibody binding signal (absorbance at 450 nm) [21]: 0.06
antibody binding signal (absorbance at 450 nm) [22]: 0.05
antibody binding signal (absorbance at 450 nm) [23]: 0.06
antibody binding signal (absorbance at 450 nm) [24]: 0.05
antibody binding signal (absorbance at 450 nm) [25]: 0.06
antibody binding signal (absorbance at 450 nm) [26]: 0.05
antibody binding signal (absorbance at 450 nm) [27]: 0.07
antibody binding signal (absorbance at 450 nm) [28]: 0.05
Liraglutide fibril specificity (Liraglutide fibril/Liraglutide monomer) [29]: 1.41
Liraglutide fibril specificity (Liraglutide fibril/Liraglutide monomer) [30]: 1.32

B3: Antibody A (Fc fusion)
scFv: DIQMTQSPSSLSASVGDRVTITCRASQGVSDAVSWYQQKPGKAPKLLIYSASFLYSGVPSRFSGSRSGTDFTLTISSLQPEDFATYYCQQHDTTPPTFGQGTKVEIKRTSPNSASHSGSAPQTSSAPGSQEVQLVESGGGLVQPGGSLRLSCAASGFNIKDTYIHWVRQAPGKGLEWVARISPTGGYTRYAASVKGRFTISADTSKNTAYLQMNSLRAEDTAVYYCARDWFDAASFAWFDFYDYSDYWGQGTLVTVSSAAA[human IgG1 Fc not written out]GSHHHHHHKLDYKDHDGDYKDHDIDYKDDDDK
Antibody Specificity Ratio (Liraglutide fibril in mixture/Soluble liraglutide) [31]: 8.44

B4: Antibody B (Fc fusion)
scFv: B3 scFv with G28D, S30D, D31S, S34N, D92C, T94Y, T184Y, G185D, Y187N
Antibody Specificity Ratio (Liraglutide fibril in mixture/Soluble liraglutide) [31]: 21.5

B5: Antibody C (Fc fusion)
scFv: B3 scFv with G28D, D31T, S34T, D92S, T94Y, T184A, Y187T
Antibody Specificity Ratio (Liraglutide fibril in mixture/Soluble liraglutide) [31]: 24.3

B6: Antibody D (Fc fusion)
scFv: B3 scFv with G28I, D31N, S34T, D92C, S182Y, T184D, Y187N, A192G, A227V
Antibody Specificity Ratio (Liraglutide fibril in mixture/Soluble liraglutide) [31]: 30.7

B7: Antibody F (Fc fusion)
scFv: B1 scFv with N28I, S30N, D31Y, N34Y, A84V, N94T, T182A, D185N, V192D
Antibody Specificity Ratio (Liraglutide fibril in mixture/Soluble liraglutide) [31]: 40.4

B8: Antibody G (Fc fusion)
scFv: B1 scFv with N28G, S30T, D31A, N34A, Y92N, N94Y, T182A, D185S, T187Y
Antibody Specificity Ratio (Liraglutide fibril in mixture/Soluble liraglutide) [31]: 35.8

Changes are numbered by the printed parent chain.
